In PubChem BioAssay AID1508624 (National Center for Advancing Translational Sciences (NCATS), 2021):
Among all 48,000 compounds or so, about 120 (0.25%) were called active. Roughly 4% stayed inconclusive and do not appear here. The call rests on the fitted dose curve; in most records, active means well fitted activation curve with a large enough effect; inconclusive means small, poorly fitted or top-dose-only effect, or another doubt; inactive means no such curve, though single readings can be large or run the other way. Some of the results follow.

Assay: Primary qHTS for Identification of Small Molecule Activators of Huntingtin-Antisense Promoter Activity; further: nearly all actives have a fitted effect of over 55% in size
Details: HEK293 HTT-AS promoter firefly luciferase reporter (activity 0% = vehicle and -100% = no light), 24 h; series mostly up to 57.5 µM; activity change, positive = activation: at the top concentration
From the text: Assay Provider: Russell L. Margolis M.D.
Department Neurology, Johns Hopkins University School of Medicine, Baltimore, MD
Huntington's Disease (HD) is a neurodegenerative disorder caused by a CAG repeat expansion in exon 1 of huntingtin (HTT). While there are currently no disease-modifying treatments for HD, recent efforts have focused on development of nucleotide-based therapeutics to lower HTT expression. As an alternative to siRNA or oligonucleotide methods, we hypothesized that suppression of HTT expression might be accomplished by small molecules that either (1) directly decrease HTT expression by suppressing HTT promoter activity or (2) indirectly decrease HTT expression by increasing the promoter activity of HTT-AS, the gene antisense to HTT that appears to inhibit expression of HTT.
We developed and employed a high throughput screen for modifiers of HTT and HTT-AS promoter activity using luminescent reporter HEK293 cells; of the 52,041 compounds tested, we identified 898 replicable hits. We used a rigorous stepwise approach to assess compound toxicity and the capacity of the compounds to specifically lower huntingtin protein in 5 different cell lines, including HEK293 cells, HD lymphoblastoid cells, mouse primary neurons, HD iPSCs differentiated into cortical-like neurons, and HD hESCs. We found no compounds which were able to lower huntingtin without lowering cell viability in all assays, though the potential efficacy of a few compounds at non-toxic doses could not be excluded.
SEQUENCE No. (1, 2, 3, etc.); […] (e.g., Cells, Incubation, Reagent, etc.); VALUE and DESCRIPTION.
1; Reagent; 4 uL; 2,500 Hek293 luciferase reporter cells per wells
3; Compound; 23 nL; Control inhibitor / compound library
5; Reagent; 2.5 uL; Firefly Luc reagent; Dual-Glo Luciferase Reporter Assay System (Promega)
6; Time; 10 min; room temperature incubation
7; Detection; Luminescence; FLuc
NOTES (numbers refer to sequence above)
1; High-throughput screening, measuring luminescence from a Hek293 luciferase reporter, was performed in 1,536 well white-walled tissue-culture treated plates. 2,500 cells were plated in 4 µL of Opti-MEM per well using a Multidrop Combi Reagent Dispenser (ThermoFisher).
2; Assay plates were cultured for 24 hours.
3; Control inhibitor (PTC124; final concentration of 50 uM) and compound library (at final concentrations of 460 nM - 57.5 uM) were added to the assay plate using the Kalypsis Pintool Robotic System equipped with 1536 pinheads.
4; Cells were then incubated for 24 hours at 37 degrees C prior to luminescence measurements.
5; In all cases, luminescence was measured using the Dual-Glo Luciferase Reporter Assay System (Promega) following the manufacturer's instructions.
6; Room temperature incubation.
7; Luminescence signal was obtained using the PerkinElmer ViewLux plate reader. Results were normalized to vehicle control (0% activity) and zero RLU (-100% activity).

Activity change, positive = activation, inactive:
Cc1cccc(NC(=O)c2cc3c(=O)n4ccccc4nc3n2C)c1C -1.61%
CCCCNC(=O)Cn1cnc2sc(C)c(S(=O)(=O)N3CCN(c4ccccc4OC)CC3)c2c1=O 11.3%
Cc1csc2nc(COC(=O)c3ccc(NC(=O)C(C)C)cc3)cc(=O)n12 -32.9%
COc1ccccc1NC(=O)c1ncoc1-c1ccco1 9.81%
CC(C)OCCCNC(=O)CN1C(=O)COc2ccc(S(=O)(=O)N3CCOCC3)cc21 -12.8%
CC(CC(C#N)(c1ccccc1)C(C)C)N(C)C (stereo not drawn) -2.07%
O=C(Cn1ncc2c3ccccc3n(Cc3ccccc3F)c2c1=O)NCCCc1ccccc1 -26.6%
COC(=O)c1ccccc1NC(=O)CSc1nc2nc(C)cc(C)n2n1 -5.18%
CCOc1ccccc1C(=O)N(Cc1ccco1)Cc1ccccc1F -23.9%
Cc1ccc(C(=O)Nc2ccc(Br)cc2)cc1S(=O)(=O)NCc1ccccc1 -40.5%
CC(C)C[C@H](NC(=O)[C@H](Cc1ccccc1)NC(=O)c1cnccn1)B(O)O -21.4%
CCOc1ccccc1CNC(=O)CCCN1C(=O)c2cccnc2Oc2ccc(Cl)cc21 -22.9%
COc1ccccc1Cn1c(SCC(=O)C(C)(C)C)nc2ccccc2c1=O -18.1%
CCNC(=O)C1CCN(Cc2cc3ccccc3n2Cc2ccc(C)cc2)CC1 -27.2%
CCOC(=O)c1c(C)oc2nc(C)nc(N3CCN(c4ccc(OC)cc4)CC3)c12 -42.4%
COC(=O)CN1C(C(=O)c2ccccc2)=C(OC(=O)c2ccc(C)cc2)c2ccccc2S1(=O)=O -21.4%
Clc1cccc(CSc2ccc(-c3cccs3)nn2)c1 16.8%
O=C(c1cccn1-c1nnc(N2CCCCC2)s1)N1CCN(c2ccccc2)CC1 -9.04%
CCn1c(=O)c2sccc2n2c(CCC(=O)NCc3ccc(Cl)cc3)nnc12 -8.43%
N#Cc1ccc(CSc2nnc(-c3ccc(Br)cc3)o2)cc1 1.59%
CCS(=O)(=O)c1ccccc1C(=O)N1CCN(c2nc3ccccc3s2)CC1 -44.4%
COc1ccc(CNC(=O)CCCN2C(=O)c3cccnc3Oc3ccc(Cl)cc32)cc1 -12.3%
CCOC(=O)C1CCN(C(=O)Cn2ncc3c4ccccc4n(C)c3c2=O)CC1 -10.6%
Cc1oc(-c2cccc(Cl)c2)nc1CSCC(=O)NCc1ccccc1Cl -22.4%
CCOc1ccccc1NC(=O)CCc1c(C)nc2c3cccnc3nn2c1C -12.3%
CCc1cccc(NC(=O)Cn2ncc3c([nH]c4ccc(C)cc43)c2=O)c1 0.885%
COc1ccc(Cl)cc1C1CC(=O)Nc2cc3c(cc21)OCCO3 (stereo not drawn) -45.7%
CCCCNc1sc(S(=O)(=O)CCC)nc1S(=O)(=O)c1ccc(C)cc1 -21.4%
